Whole data set: some 33,000 sequences, median “E-score (-0.5 to 0.5)” near -0.035, cut for the highest 2% near 0.34. Some of the results follow.
What follows are sequences tested against T1, Mot3 (UniProt P54785) (assay: PBM E-score (8-mer binding enrichment) (E-score (-0.5 to 0.5)); higher = stronger / more preferred TF binding; most listed sequences are background and not binding sites). Conditions: protein concentration: 200 nM; construct: GST-full length.
T1 sequence: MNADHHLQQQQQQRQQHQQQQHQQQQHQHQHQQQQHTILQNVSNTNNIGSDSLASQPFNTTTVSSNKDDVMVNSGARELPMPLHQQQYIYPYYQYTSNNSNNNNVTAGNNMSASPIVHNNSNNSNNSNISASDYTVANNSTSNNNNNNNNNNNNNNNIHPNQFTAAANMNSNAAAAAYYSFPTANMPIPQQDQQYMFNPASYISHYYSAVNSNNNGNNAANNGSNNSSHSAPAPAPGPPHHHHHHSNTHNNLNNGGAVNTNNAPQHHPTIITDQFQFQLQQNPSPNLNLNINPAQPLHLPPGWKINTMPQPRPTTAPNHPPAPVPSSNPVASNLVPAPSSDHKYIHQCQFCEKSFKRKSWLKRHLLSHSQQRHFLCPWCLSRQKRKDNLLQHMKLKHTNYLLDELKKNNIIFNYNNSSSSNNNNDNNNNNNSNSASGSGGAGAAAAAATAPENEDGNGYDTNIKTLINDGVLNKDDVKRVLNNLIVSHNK
In short: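 Detection of bound protein used fluorescent anti-GST, with scans normalised by masliner. The proteins were GST-tagged yeast transcription factors applied at about 100-200 nM to universal all-10-mer Agilent arrays made double-stranded by primer extension. Each ungapped eight-base word, pooled with its reverse complement, was scored with an E-score from the Universal PBM Analysis Suite.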

Sequence | PBM E-score
ACCTGCCG | -0.0578
ACCTTCTC | -0.0576
ACTTGGAC | -0.0657
GGGGGGAC | -0.254
CCGCTGAG | -0.213
CCAGTGGC | -0.148
TAAAATGA | 0.144
GGGCTGAC | -0.119
AAGTAGAG | -0.122
CTATTACC | 0.142
ACGGGTAC | -0.0236
ACACATCT | 0.287
CCCACTAA | -0.103
AATAAGTG | -0.0601
AGCTTCTA | -0.162
AAGGTCGG | -0.169
ATGACCCC | -0.15
AGAAATGA | -0.0307
TACCAGAA | 0.012
CGTTCGAC | -0.112
ACCGACTC | -0.169
AAGGTTAC | 0.0496
AAATGGCT | -0.0906
ATTCAATG | -0.0471
TACAGCGA | -0.184

Sequence | PBM E-score
CGGGTGTA | 0.0975
GCTTTCCC | -0.345
CTTGTACC | 0.176
AGCTCGTA | -0.0445
TGCATGCA | 0.157
ATCGTCTC | -0.198
ACTACTAC | 0.106
CTTTAGGC | 0.207
ACGTACAA | 0.258
CCCTAGCC | -0.354
CAGAGTCC | -0.184
CCCAGCTC | -0.376
GAATCCTC | -0.161
CGTGGCAC | 0.0988
ATGACGCA | 0.00754
CTCAACGA | -0.178
ATGGGAGG | -0.0718
GCCCGGCA | -0.243
ATACGTCA | 0.0159
ACCTCCCA | -0.12
ATGTTCTA | 0.127
AAACTTGC | 0.0978
AGCGGTCG | -0.237
CCCCAGAG | -0.196
ACCCACTC | -0.122

Sequence | PBM E-score
AATTGACT | -0.0175
AAAGGTGT | 0.105
CAGGACTC | -0.104
CCTTATTA | 0.102
AAGGCATT | 0.362
GACGACGC | -0.155
CGTGTCAC | 0.157
CACGTACC | 0.143
ATCGGCCA | -0.35
ACCAGCCA | -0.131
CCGTCGGA | -0.134
GGCTGCTA | -0.111
AGTGCCAT | 0.0123
GACCAATA | 0.034
GCACTAGC | -0.122
CCGCCCTC | -0.324
CTAGCTGC | -0.229
CAAGTTTC | -0.0401
ACCATGCT | -0.0411
ACCCACAA | 0.106
GACTGACC | -0.185
CAACTCGG | -0.134
TCCATTCA | -0.201
AGAGCAGC | -0.053
GCTGTGAA | 0.0424

Sequence | PBM E-score
CCTTGCAA | -0.0849
TGCGTAAA | 0.342
TATGCTCA | 0.108
ATGTCCAA | 0.0425
AGTAGTCG | 0.0661
CCCAACCA | -0.0498
ACAGGTTA | 0.155
ATTCAAAC | 0.12
ACGGGAGA | -0.0875
AATTTTAT | 0.0903
ACCAATGA | -0.0605
CACCATTC | -0.0923
AGGAGTAC | 0.171
AATAAGAG | -0.137
CCCAAGGG | -0.379
GTGACGAA | -0.104
ACCGGGAC | -0.156
AGTCCGAA | -0.0534
ATAGTTGG | -0.162
GATATTGC | -0.0968
CCCCACCG | -0.337
GATAATAA | -0.0982
CGGAAGTA | -0.114
CGGGCATC | -0.287
CGCTAAAC | 0.0334

Sequence | PBM E-score
CAGTAAGC | -0.142
ATGCCCAG | 0.0604
CCGTAGAG | -0.309
GCCGAAGC | -0.267
AGGTGCCG | -0.046
AATTCATC | 0.0469
GTTCACCA | 0.00023
GAAAACCC | 0.0202
GCGAAGAC | -0.2
CGTTCTTC | -0.0469
AGCCCCAG | -0.255
AATGAGCA | -0.132
ACCCGCTG | 0.0394
CCCCGGCG | -0.196
AACGGGTG | -0.0602
CTCCGACC | -0.297
AACACTCC | 0.0705
AAAGCTCC | -0.102
ATCCGCAA | -0.0584
CTCTTGCC | 0.236
AACGTAGA | 0.161
AGCTAAGC | -0.132
CAACTCCG | -0.279
TATAAGAA | -0.036
CGGGTGAG | -0.333

Sequence | PBM E-score
AATTTGTC | -0.0857
ATGCTCTA | -0.00028
TCAAAACA | 0.205
CTTTTCGC | 0.124
TCCGACAA | 0.0252
CCTGCCAC | 0.00164
ACTAGATG | -0.0217
CGGTGTCA | -0.029
CTTATAAG | -0.149
GAATGAAA | 0.0726
CATTCGAA | 0.134
ATGGTCTG | -0.134
GATGTAAC | 0.175
GATGGGAC | -0.287
ATTCGTTG | 0.0945
ATATTTCG | 0.0141
AAGTATGC | 0.00412
GCTTACCC | -0.351
TCACTCAA | -0.163
AAACGGGC | 0.0596
ATGCCGTC | -0.0588
GCTTAATA | -0.171
TACGAAGA | 0.0468
AGCTTACT | -0.0685
CAAGAGTG | -0.0522

Sequence | PBM E-score
CGTCAACA | 0.165
AGCTTAGA | 0.0556
AGGTGATA | -0.0326
CCAGAAAG | 0.0871
CACCCGGG | -0.205
ACATATTG | 0.0654
AAGGCAGC | 0.276
CCTGTCCG | 0.099
CGGGAGCC | -0.311
GTGTAGCA | 0.168
ACCCAAAG | -0.0176
GGAAGGCC | -0.214
GTGCAAAC | 0.0488
CCTGCTTC | -0.00779
CATATGCA | -0.0842
CATAATGA | 0.0358
GGGCCCGA | -0.144
ATTCGGAG | -0.0693
CCTTGTAG | 0.311
AGCTCTTC | -0.103
ATCGACTG | -0.268
TATTTACA | 0.386
CTCCCCCC | -0.269
CTCTCAAG | -0.255
ATTGTGCA | -0.0597

Sequence | PBM E-score
GAAGTCAC | 0.0721
AGGCACCC | 0.491
CCGGGCAC | 0.0258
ATCAATCG | 0.106
CAGCAACA | 0.112
CGATGGTC | -0.213
CTTCTTGC | 0.242
ACGCCCCA | -0.128
CGGCGGAC | -0.165
CGCCAGCC | -0.187
ACACTGGC | 0.00843
GGGAAGCA | -0.178
ACAGTTCC | 0.153
AGTATAGA | -0.0939
AATGTACG | 0.125
AAGACAAT | -0.0682
CCTTCTAC | 0.222
GTGCTTCA | -0.048
CGCGGCCG | -0.272
AATGCCCA | -0.0213
ACTTGGGG | -0.134
CCAGAGAA | -0.0675
GCAACTGC | 0.0618
ACAATAAG | 0.0916
CAAAAAAC | 0.193

Sequence | PBM E-score
GACAAACC | -0.00892
ATCTCGGC | -0.296
GCCCATTA | 0.0591
TACAGAGA | -0.0215
CGTTCCAG | -0.227
ACGAGTCA | -0.0846
AAATGTAC | 0.227
CATAATTC | 0.0789
CGTCTTCA | -0.167
ACGGGTGA | -0.137
GCCCACGC | -0.263
CGAAGAAA | -0.0351
TAAACTAA | 0.149
AGTGATCC | -0.0682
GCTGTTTA | -0.0345
TGCCGGAA | 0.0304
AAATTCCG | -0.0878
GATCCACA | -0.0333
AGCCGGTC | -0.171
